Drawing on the supplement of paper PMC4967469, this text covers AUC and IC50 for 70 cell lines.

A lower IC50 marks a more sensitive line; a limit (>, <) means that the fit lies beyond the doses tested. For AUC the same curve is integrated over the 256-fold range of doses and scaled to a fraction; values near 1 show little effect. An inferred top dose comes from the curve model; the source does not state it.

Compound in this test: O=C1NC(=NCc2cccs2)S/C1=C\c1ccc2ncccc2c1 [RO-3306]
Briefly: Viability of human cancer cell lines after 72 h of drug (GDSC screen). The settings on record: top dose 5 µM; top dose inferred. Here is the method: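 Human cancer cell lines in 384-well plates, medium with 10% serum, drug for 72 h over a 256-fold dose range (nine 2-fold or five 4-fold steps up to the top dose). Adherent lines were fixed and stained with the nucleic acid dye Syto60, suspension lines read with resazurin; signal relative to control wells, capped at 0 and 100%. One two-parameter sigmoid per drug and line, fitted in a mixed model over all curves with the slope shared within a line.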

For orientation: IC50 means the concentration needed to halve the response being measured. On to “NCI-H211 (small cell lung carcinoma, adherent)”, for which the AUC was found to be 0.982 and the IC50 was more than 5 µM.

“NCI-H226 (lung squamous cell carcinoma, adherent)”: the AUC amounted to 0.955 and the IC50 is more than 5 µM.

As for “NCI-H322M (lung adenocarcinoma, suspension)”, the AUC stood at 0.964 and the IC50 was more than 5 µM.

For “NCI-H345 (small cell lung carcinoma, suspension)”, the AUC worked out at 0.99 and the IC50 was more than 5 µM.

For “NCI-H358 (lung adenocarcinoma, adherent)”, the AUC stood at 0.908 and the IC50 is more than 5 µM.

For the cell line “NCI-H446 (small cell lung carcinoma, semi-adherent)”, the AUC is 0.986 and the IC50 is more than 5 µM.

As for “NCI-H460 (large cell lung carcinoma, adherent)”, the AUC is 0.988 and the half-maximal inhibitory concentration (IC50) is more than 5 µM.

In the case of “NCI-H508 (large intestine, semi-adherent)”, the AUC is 0.976 and the IC50 is more than 5 µM.

“NCI-H510A (small cell lung carcinoma, semi-adherent)”: the AUC was determined as 0.983 and the concentration for half-maximal inhibition (IC50) is more than 5 µM.

Regarding “NCI-H520 (lung squamous cell carcinoma, adherent)”, the AUC was 0.986 and the 50% inhibitory concentration (IC50) was more than 5 µM.

As to “NCI-H522 (lung adenocarcinoma, adherent)”, the AUC amounted to 0.977 and the IC50 is more than 5 µM.

On to “NCI-H524 (small cell lung carcinoma, suspension)”, for which the AUC amounted to 0.986 and the IC50 was more than 5 µM.

For “NCI-H526 (small cell lung carcinoma, suspension)”, the AUC is 0.989 and the 50% inhibitory concentration (IC50) was more than 5 µM.

For “NCI-H596 (lung adenocarcinoma, adherent)”, the AUC was 0.982 and the IC50 was more than 5 µM.

NCI-H630 (large intestine, adherent): the AUC was 0.988 and the IC50 is more than 5 µM.

Turning to “NCI-H647 (non-small cell lung carcinoma, adherent)”, the AUC stood at 0.984 and the IC50 is more than 5 µM.

Regarding “NCI-H650 (lung adenocarcinoma, adherent)”, the AUC is 0.986 and the 50% inhibitory concentration (IC50) is more than 5 µM.

In the case of “NCI-H661 (large cell lung carcinoma, adherent)”, the AUC is 0.936 and the IC50 was more than 5 µM.

With NCI-H720 (lung carcinoid, suspension), the AUC was 0.992 and the 50% inhibitory concentration (IC50) was more than 5 µM.

In the case of NCI-H727 (lung carcinoid, adherent), the AUC stood at 0.863 and the half-inhibitory concentration (IC50) is more than 5 µM.

On to NCI-H747 (large intestine, adherent), for which the AUC is 0.915 and the IC50 is more than 5 µM.

Consider “NCI-H810 (large cell lung carcinoma, adherent)”, for which the AUC came to 0.956 and the IC50 was more than 5 µM.

As for NCI-H835 (lung carcinoid, suspension), the AUC came to 0.986 and the IC50 is more than 5 µM.

“NCI-H838 (lung adenocarcinoma, adherent)”: the AUC was 0.934 and the half-maximal inhibitory concentration (IC50) is more than 5 µM.

With “NCI-H841 (small cell lung carcinoma, adherent)”, the AUC worked out at 0.963 and the IC50 is more than 5 µM.

Regarding “NCI-H847 (small cell lung carcinoma, adherent)”, the AUC was 0.993 and the IC50 was more than 5 µM.

For NCI-H929 (myeloma, suspension), the AUC was 0.96 and the 50% inhibitory concentration (IC50) was more than 5 µM.

Turning to “NCI-H1048 (small cell lung carcinoma, adherent)”, the AUC came out at 0.98 and the IC50 was more than 5 µM.

For the cell line “NCI-H1092 (small cell lung carcinoma, suspension)”, the AUC is 0.99 and the IC50 is more than 5 µM.

Consider “NCI-H1105 (small cell lung carcinoma, suspension)”, for which the AUC was 0.993 and the IC50 is more than 5 µM.

As to “NCI-H1155 (large cell lung carcinoma, suspension)”, the AUC came out at 0.96 and the IC50 is more than 5 µM.

For “NCI-H1304 (small cell lung carcinoma, suspension)”, the AUC was found to be 0.958 and the IC50 is more than 5 µM.

In the case of “NCI-H1341 (small cell lung carcinoma, suspension)”, the AUC came out at 0.991 and the IC50 was more than 5 µM.

As to “NCI-H1355 (lung adenocarcinoma, adherent)”, the AUC turned out to be 0.968 and the concentration for half-maximal inhibition (IC50) was more than 5 µM.

In the case of “NCI-H1395 (lung adenocarcinoma, adherent)”, the AUC is 0.962 and the concentration for half-maximal inhibition (IC50) is more than 5 µM.

For the cell line “NCI-H1417 (small cell lung carcinoma, suspension)”, the AUC was 0.945 and the concentration for half-maximal inhibition (IC50) is more than 5 µM.

Regarding “NCI-H1435 (lung adenocarcinoma, semi-adherent)”, the AUC came to 0.993 and the IC50 was more than 5 µM.

For “NCI-H1436 (small cell lung carcinoma, suspension)”, the AUC was determined as 0.983 and the IC50 is more than 5 µM.

Regarding “NCI-H1437 (lung adenocarcinoma, adherent)”, the AUC stood at 0.941 and the 50% inhibitory concentration (IC50) was more than 5 µM.

With “NCI-H1563 (lung adenocarcinoma, adherent)”, the AUC amounted to 0.893 and the IC50 was more than 5 µM.

Turning to “NCI-H1568 (lung adenocarcinoma, adherent)”, the AUC came to 0.977 and the 50% inhibitory concentration (IC50) was more than 5 µM.

Take “NCI-H1623 (lung adenocarcinoma, adherent)”: the AUC was determined as 0.964 and the IC50 was more than 5 µM.

For the cell line “NCI-H1648 (lung adenocarcinoma, adherent)”, the AUC is 0.977 and the half-inhibitory concentration (IC50) is more than 5 µM.

Turning to “NCI-H1651 (lung adenocarcinoma, adherent)”, the AUC was determined as 0.975 and the 50% inhibitory concentration (IC50) is more than 5 µM.

Consider “NCI-H1688 (small cell lung carcinoma, adherent)”, for which the AUC worked out at 0.974 and the IC50 is more than 5 µM.

With “NCI-H1693 (lung adenocarcinoma, adherent)”, the AUC was found to be 0.958 and the IC50 was more than 5 µM.

For “NCI-H1694 (small cell lung carcinoma, suspension)”, the AUC turned out to be 0.975 and the IC50 was more than 5 µM.

Consider “NCI-H1703 (lung adenocarcinoma, adherent)”, for which the AUC is 0.825 and the IC50 is 3.93 µM.

In the case of “NCI-H1755 (lung adenocarcinoma, adherent)”, the AUC amounted to 0.972 and the IC50 was more than 5 µM.

As for “NCI-H1770 (non-small cell lung carcinoma, suspension)”, the AUC came out at 0.992 and the IC50 is more than 5 µM.

Consider “NCI-H1781 (lung adenocarcinoma, adherent)”, for which the AUC worked out at 0.989 and the IC50 is more than 5 µM.

On to “NCI-H1792 (lung adenocarcinoma, adherent)”, for which the AUC is 0.894 and the IC50 is more than 5 µM.

Take “NCI-H1836 (small cell lung carcinoma, suspension)”: the AUC was found to be 0.988 and the IC50 is more than 5 µM.

In the case of “NCI-H1838 (lung adenocarcinoma, adherent)”, the AUC stood at 0.987 and the IC50 is more than 5 µM.

As for “NCI-H1869 (lung squamous cell carcinoma, adherent)”, the AUC worked out at 0.985 and the 50% inhibitory concentration (IC50) was more than 5 µM.

Take “NCI-H1876 (small cell lung carcinoma, adherent)”: the AUC amounted to 0.987 and the IC50 is more than 5 µM.

Regarding “NCI-H1944 (lung adenocarcinoma, adherent)”, the AUC is 0.813 and the IC50 was 2.94 µM.

For “NCI-H1975 (lung adenocarcinoma, adherent)”, the AUC was determined as 0.925 and the half-inhibitory concentration (IC50) was more than 5 µM.

Take “NCI-H1993 (lung adenocarcinoma, adherent)”: the AUC amounted to 0.982 and the concentration for half-maximal inhibition (IC50) is more than 5 µM.

With “NCI-H2009 (lung adenocarcinoma, adherent)”, the AUC was 0.927 and the half-inhibitory concentration (IC50) was more than 5 µM.

Regarding “NCI-H2023 (lung adenocarcinoma, adherent)”, the AUC was 0.927 and the half-maximal inhibitory concentration (IC50) was more than 5 µM.

Regarding “NCI-H2030 (lung adenocarcinoma, adherent)”, the AUC turned out to be 0.974 and the IC50 is more than 5 µM.

For the cell line NCI-H2052 (mesothelioma, adherent), the AUC amounted to 0.973 and the half-inhibitory concentration (IC50) is more than 5 µM.

For the cell line “NCI-H2066 (small cell lung carcinoma, adherent)”, the AUC was 0.953 and the IC50 was more than 5 µM.

Consider “NCI-H2081 (small cell lung carcinoma, suspension)”, for which the AUC came out at 0.976 and the IC50 is more than 5 µM.

As for “NCI-H2085 (lung adenocarcinoma, adherent)”, the AUC came to 0.821 and the IC50 was determined as 3.2 µM.

Regarding “NCI-H2087 (lung adenocarcinoma, semi-adherent)”, the AUC amounted to 0.92 and the IC50 is more than 5 µM.

Regarding “NCI-H2110 (non-small cell lung carcinoma, adherent)”, the AUC stood at 0.926 and the IC50 was more than 5 µM.

“NCI-H2135 (non-small cell lung carcinoma, adherent)”: the AUC was 0.991 and the 50% inhibitory concentration (IC50) was more than 5 µM.

Take “NCI-H2141 (small cell lung carcinoma, suspension)”: the AUC is 0.99 and the concentration for half-maximal inhibition (IC50) is more than 5 µM.
